Data as given in PMC4336329 (PLoS ONE, 2015).
In all, about 310,000 compounds went through this assay and about 2,200 (0.71%) showed an effect of 50% or more. The effect is printed as a negative number. Some of the results follow.

Target: human ether-à-go-go-related gene (hERG) potassium channel (human, UniProt Q12809)
Experiment: primary screen, population patch clamp on CHO cells stably expressing hERG

Sequence of human ether-à-go-go-related gene (hERG) potassium channel (Q12809 whole entry, looked up): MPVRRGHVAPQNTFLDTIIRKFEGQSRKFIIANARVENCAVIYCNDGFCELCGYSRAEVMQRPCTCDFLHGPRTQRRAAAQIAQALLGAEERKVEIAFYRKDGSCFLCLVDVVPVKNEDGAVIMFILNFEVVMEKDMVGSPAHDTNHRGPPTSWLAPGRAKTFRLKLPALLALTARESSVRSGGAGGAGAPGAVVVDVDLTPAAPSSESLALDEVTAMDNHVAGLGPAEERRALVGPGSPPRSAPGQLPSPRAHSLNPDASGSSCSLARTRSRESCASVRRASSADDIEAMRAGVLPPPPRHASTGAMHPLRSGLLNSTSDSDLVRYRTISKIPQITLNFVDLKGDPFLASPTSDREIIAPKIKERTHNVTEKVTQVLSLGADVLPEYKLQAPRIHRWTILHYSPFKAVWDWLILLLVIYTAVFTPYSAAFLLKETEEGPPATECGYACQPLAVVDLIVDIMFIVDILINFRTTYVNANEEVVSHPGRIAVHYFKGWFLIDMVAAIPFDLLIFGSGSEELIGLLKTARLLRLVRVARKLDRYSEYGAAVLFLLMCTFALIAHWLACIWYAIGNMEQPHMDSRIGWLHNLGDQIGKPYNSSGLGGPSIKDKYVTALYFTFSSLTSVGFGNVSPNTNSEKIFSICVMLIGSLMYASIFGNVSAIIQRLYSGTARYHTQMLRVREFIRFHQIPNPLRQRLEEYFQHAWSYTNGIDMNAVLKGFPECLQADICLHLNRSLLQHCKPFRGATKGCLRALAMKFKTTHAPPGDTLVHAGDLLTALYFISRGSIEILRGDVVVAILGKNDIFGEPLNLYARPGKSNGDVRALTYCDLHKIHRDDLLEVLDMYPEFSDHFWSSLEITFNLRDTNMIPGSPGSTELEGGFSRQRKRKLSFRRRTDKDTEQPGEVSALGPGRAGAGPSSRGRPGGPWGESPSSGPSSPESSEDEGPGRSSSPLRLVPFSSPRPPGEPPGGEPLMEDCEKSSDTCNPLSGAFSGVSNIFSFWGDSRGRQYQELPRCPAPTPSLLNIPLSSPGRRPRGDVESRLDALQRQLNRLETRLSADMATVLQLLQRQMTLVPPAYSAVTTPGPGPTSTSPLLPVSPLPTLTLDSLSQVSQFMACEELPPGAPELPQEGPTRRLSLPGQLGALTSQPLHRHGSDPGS

| SMILES | hERG current change (%, negative = inhibition) at 1uM [%] |
| --- | --- |
| O=C(NC(=S)N1CCCc2ccccc21)c1ccco1 | 9.28 |
| c1ccc(SCCCCNC2CCCC2)cc1 | -2.58 |
| N#C/C(=C\c1cn(Cc2cccc(F)c2)c2ccccc12)C(=O)NCc1ccco1 | 13.8 |
| COc1ccc(C(=O)C2CCCN(C(=O)c3ccc(F)cc3)C2)cc1OC (stereo not shown) | 5.09 |
| O=C(CSc1nnc(CNC(=O)c2cccc(C(F)(F)F)c2)o1)NC1CCCC1 | 9.05 |
| N#Cc1cn(-c2cccc(C(F)(F)F)c2)c(=O)[nH]c1=O | 13.8 |
| COc1ccc(NC(=O)/C=C/c2ccccc2)cn1 | 5.89 |
| Cc1cc(NS(=O)(=O)c2ccc(NC(=S)NC(=O)c3cccnc3)cc2)no1 | 4.82 |
| O=c1nc(Nc2cccc(Cl)c2)oc2cc(Cl)oc(=O)c12 | 13 |
| Cc1ccc(NC2=NC(=S)N(CC#N)C23CCCCC3)cc1 | -2.71 |
| CSc1nnc(CNS(=O)(=O)c2ccc(Cl)cc2)n1C | 17.8 |
| COCCNC(=O)c1c(N)n(-c2ccccc2)c2nc3ccccc3nc12 | -6.18 |
| CN(C)S(=O)(=O)c1ccc(C(=O)OCC(=O)Nc2ccc(OC(F)F)cc2)cc1 | 12 |
| Nc1c(-c2cccs2)cnn1-c1nc(-c2ccc(F)cc2)cs1 | 11.5 |
| CCc1nc(SCC(=O)Nc2cc(C)on2)n[nH]1 | 2.4 |
| Cc1ccccc1NC(=O)COc1ccccc1C | 18.3 |
| Cc1ccc(NCc2ccc(O)c3ncccc23)cc1 | 17.9 |
| CCOc1ccc(NC(=O)CNc2ccc(C)cc2Cl)cc1 | 12.5 |
| O=C(CSc1nc2ccccc2nc1N1CCCC1)Nc1ccc(F)cc1 | 11.1 |
| O/N=C/c1ccnc(SCc2ccccc2)n1 | 4.94 |

| SMILES | hERG current change (%, negative = inhibition) at 1uM [%] |
| --- | --- |
| CC(C)Oc1nc(-c2ccc(Cl)cc2)nc2ccccc12 | 11 |
| COc1ccc(N2C(=O)c3ccccc3C2=O)cc1 | 5.04 |
| CCCCCCP(=O)(O)c1ccccc1 | 5.36 |
| O=S(=O)(NCC(Nc1ccc(Cl)cc1)c1ccccc1)c1ccc(Cl)cc1 (stereo not shown) | 17.4 |
| COC(=O)C1=C(N)c2c(F)cccc2C1(C#N)c1ccccc1 (stereo not shown) | 5.51 |
| CCNC(=O)C(=O)Nc1ccc2c(c1)N(S(=O)(=O)c1cccs1)CCC2 | 14.6 |
| O=C(Cn1cc(C(F)(F)F)ccc1=O)Nc1ccccc1 | 14 |
| COc1ccc(N(CC(=O)Nc2ccc3c(c2)OCO3)S(=O)(=O)c2c(C)nn(C)c2C)cc1 | 15.5 |
| CCOC(=O)c1ccc(N=Cc2nc(-c3ccccc3)oc2OC(C)=O)cc1 | 14.1 |
| COc1cc2c(cc1NC(=O)CN1CCN(S(=O)(=O)c3ccc(C)cc3)CC1)oc1ccccc12 | 6.22 |
| O=C(NC1CCCCC1)C1CCC(CNS(=O)(=O)c2cccc3nsnc23)CC1 (stereo not shown) | 17 |
| Cc1ccc(-c2nn(C)c(=O)c3ccccc23)cc1S(=O)(=O)N1CCOCC1 | -20.6 |
| CC(C(=O)Nc1ccc(S(=O)(=O)N2CCCC2)cc1)N1CCN(C(=O)c2ccco2)CC1 (stereo not shown) | 4.96 |
| Cc1c(C(=O)Nc2ccc(S(=O)(=O)Nc3ncccn3)cc2)oc2ccccc12 | 13.5 |
| Cc1ccc(S(=O)(=O)N2CCOCC2)cc1C(=O)Nc1ccccc1N1CCCC1 | -27.3 |
| CCCCCOC(=O)Cn1c(=O)c2c(nc(N3CCOCC3)n2C)n(C)c1=O | -19.7 |
| COc1ccc(Cc2nnc(SCC(=O)N3CCN(c4ccccc4)CC3)o2)cc1 | -6.76 |
| O=S1(=O)NC(=NCCOCCO)c2ccccc21 | 6.35 |
| COc1ccc(OCC(O)COc2ccc(C(=O)O)cc2)cc1 (stereo not shown) | 8.21 |
| COc1cccc(NC(=O)c2ccc(NC(C)=O)cc2)c1 | 11.5 |

| SMILES | hERG current change (%, negative = inhibition) at 1uM [%] |
| --- | --- |
| CC1Cn2c(nnc2-c2ccc(F)cc2)S1 (stereo not shown) | -1.74 |
| CCCCNC(=O)c1ccc(CNS(=O)(=O)c2ccc(Br)cc2)cc1 | 10.6 |
| COc1ccc(C2C(C(=O)NCc3cccnc3)c3cc(OC)c(OC)cc3C(=O)N2C)cc1 (stereo not shown) | 21 |
| COC(=O)C1CCN(C(=O)NC2CCCCC2)CC1 | 9.37 |
| Cc1noc(C)c1CSc1nnc(-c2ccccc2F)n1CCc1ccccc1 | -15.8 |
| O=C(CN1C(=O)NC2(CCCCCC2)C1=O)N1CCN(c2ccc(F)cc2)CC1 | -5.24 |
| CCSc1nc2ccccc2n1CC(N)=O | 8.06 |
| O=C(c1cnn2c(C(F)(F)F)cc(-c3ccccc3)nc12)N1CCCc2ccccc21 | 6.05 |
| CCOc1ccc(NC(=O)Cn2nnc(C(=O)NCc3cccs3)c2N)cc1 | 16.9 |
| CCOCCCNS(=O)(=O)c1ccc(NC(=O)N2c3ccccc3Sc3ccccc32)cc1 | 9.57 |
| COc1ccc(C(C(=O)NC2CCCC2)N(C(=O)c2ccco2)c2ccccc2OC)cc1 (stereo not shown) | 10.5 |
| Cc1ccc(/C=C2\CCOC2=O)cc1 | 2.64 |
| COCCCNC(=O)c1c(NC(=O)C2COc3ccccc3O2)sc2c1CCCC2 (stereo not shown) | 17.1 |
| Cc1c(/C=N/NC(N)=O)c2ccccn2c1C(=O)c1ccncc1.Cl | -19.4 |
| CCCCNC(=O)c1cn(CC)c2ccc(S(=O)(=O)N3CCCCCC3)cc2c1=O | 15.6 |
| CN(C(=O)c1cc(-n2cnnc2)ccc1Cl)c1ccccc1 | 14 |
| Cc1cc(NC(=O)C2CCCN(S(=O)(=O)c3c(C)noc3C)C2)n[nH]1 (stereo not shown) | -7.28 |
| CCN=C1S/C(=C/c2ccc(-c3ccc(Cl)cc3C(=O)O)o2)C(=O)N1CC | 18.3 |
